# Measurements as given in the supplement of paper PMC11417369.
# The list shows a part of the results.
# System: PfSIP2 AP2 domain 1 (GST-tagged)
# Assay: gcPBM binding intensity (ln(normalized median fluorescence intensity)); higher = stronger DNA binding
# In short: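 GST-tagged P. falciparum DNA-binding domains produced in E. coli were incubated for 1 h on an Agilent 4 × 180k array of primer-extended double-stranded 36-bp intergenic genomic probes with negative controls. Binding intensity is the highest Masliner-normalised natural-log median intensity across replicate spots of either probe orientation, with bound protein detected by Alexa488 anti-GST antibody at 488 nm.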
row,Sequence,gcPBM binding intensity (ln)
1,ATATTAATTTCTCATGCATGTTCTACCCAATTGTAA [TGCATGCA_site355],6.99
2,AAAAAAAAAAAAAATTCACACAAGACTACTACATTT [CACACA_site4195],6.88
3,TTTTGTTATTATGAAGTGCATTTATGTTCATGTCTA,8.18
4,AAAATCTAATATAATGCACACATAAAAAAAAATCAA [CACACA_site9211],7.52
5,ACCCTTTTATATAAGAGTACAAACGTATTATTAAAT [XGTACX_site2221],7.23
6,AATATTAAAAACAAAACACACAAAAAAAAATAAAAT [CACACA_site702],6.84
7,ATATATGACTAATAAAGTACATACTTCATATAATTA [XGTACX_site6699],7.06
8,TATATTATATATATACTGCACTGTTTTACAAAATTA,8.44
9,TTTTAGTTATTGTATTATTATTAATATATAATATCT [CACACA_negctrl_site1528],6.77
10,CTAAAATGTAAAAACGCACACATAATATTATAAAAA [CACACA_site2788],7.16
11,AAAGCATGTTAATATGTATAAATACTGATCATTCAC [GTGCAC_negctrl_site576],6.99
12,CTTGTCATTTGGCACACACACATGTATAGGTTATTA [CACACA_site5656],7.03
13,TATATAAATAAACACACACACACCTTATAATTATTA [CACACA_site9345],7.1
14,TGAATAAATCAAAGCACACATACACAGACATATATA [CACACA_site4316],7.12
15,TAAAGTTTTTCCTATCTATATTTATATTATAAATGA [XGTACX_negctrl_site20],6.78
16,GTGAGTGAAATATGCAAACACACACCCGAAAAATGT [CACACA_site3197],7.14
17,TATGATTTTAATGAAACACACAATTTTATGTTAATA [CACACA_site311],6.66
18,TATAAAGGTATACAAAGTACAAAATACATATATACT [XGTACX_site6431],6.84
19,TGTGTATAAGTCACTTGTACTAGTAGTAAAAAAAAA [XGTACX_site4341],6.85

row,Sequence,gcPBM binding intensity (ln)
1,TAATATATGTTATATACACACATATAAATATAAATA [CACACA_site6339],6.93
2,TGAAGTATAATTTATCTAATATGTTATATTTTATTT [TGCATGCA_negctrl_site56],6.39
3,TTTAATATTATTATTTTACACACTTTTTTCCTTTTA [CACACA_site8780],6.64
4,CAAATAATATTATGAAGTACTTCAAATTTTGAAAGA [XGTACX_site2530],6.98
5,TCTTATAAACTCTGCACACATAATATATTAAATGAG [CACACA_site1936],7.35
6,AATATAGGTATATCCACACACATATTTATATTTATA [CACACA_site6867],6.97
7,AAATAAATAAATAGACGTACAAAAATATTATACATT [XGTACX_site6776],6.97
8,AATAATGAAAAAATGAATAAAATTACTATATAATTC [XGTACX_negctrl_site457],6.75
9,GATATGATGTGTTTGGTAGTTTTTGATGTTGGCATG [GTGCAC_negctrl_site506],6.96
10,TATAAATGTGTATGCGCATGTAAAAATATAATTTAT [TGCATGCA_site750],7.33
11,GTAAATAATAAACACCGTACATGGTATAATTCAATG [XGTACX_site3655],6.75
12,TTTTTCTTATTTGGATTGCACTACATATATATATAT,9.55
13,GAACTCATTACAAAGTGTACAAATTAAATAAATGGT [XGTACX_site3995],7.13
14,AGGTGCTTAATATATACACACATACAGATATATATA [CACACA_site5552],7.6
15,AAAATTTTTTGAAATAGTACTTTTTTATATATATAT [XGTACX_site2634],9.11
16,ATAAGGTTACAACAAACACACAAAGGAATATACACA [CACACA_site7840],6.95
17,TATAAATTTATATATGCATGTCAGAAAAAAAAGTAA [TGCATGCA_site414],7.26
18,CAACAAAATAAACACACACACACAAACACAAAAAAA [CACACA_site5806],7.08
19,GGATATTAATAAATATGTACATATGTAGATTTATTA [XGTACX_site554],7.02

row,Sequence,gcPBM binding intensity (ln)
1,AAGAAAAAAAAAAAAACACACATATATATATATATA [CACACA_site2027],9.4
2,ATATATAAATATATATGTACATAAATATATATCTTT [XGTACX_site6910],7.09
3,TATAAATAGAGGAAGCGTACATATATATATATATAT [XGTACX_site4993],9.38
4,TGTATACCTTAATATACACACATACCTATATTTATA [CACACA_site6746],6.87
5,CCACAGGATTGGTTCAAACACACATATTATATGACT [CACACA_site661],6.91
6,TATTTTTTTTTTTTTTGTACACATAATTGTAATCGT [XGTACX_site8415],7.24
7,CATATAAAAATGTGCACACACACACCGATATATATT [CACACA_site4940],9.39
8,TCACTTTTTATTAAATGTACATGCTTTCATTTTCAT [XGTACX_site8139],7.21
9,TATATATATATATATGTACACACATCAATCATATTA [CACACA_site8594],9.57
10,GAATAAATAATTAACACACACAATCTTTTTTTTTTT [CACACA_site3140],6.76
11,AAAAAAAAAATAAAATAAAATATATTATATATATTA [GTGCAC_negctrl_site431],6.58
12,TGTACGAGTCGTAGAGTGCAGTCTGGAGAAAAGTAC [GTGCAC_site9683],8.91
13,TATATATATATATATACACACTTGTGCAGAATATTA [CACACA_site5257],8.94
14,TTTTGTTATGAGAGGGTGCTAATATTTGGATATAAA,9
15,AAAAAAAGAAAAATTGCACACACTTATAAAAATATA [CACACA_site4014],6.99
16,AAAAAAAAAAAAAGTAGTACATAATATGTTCCTCCT [XGTACX_site8356],7.16
17,CCCCCCGTGTTATATACACACATAATCAAATAAAAT [CACACA_site4111],9.75
18,AGAAATAAGAAATATACACACATATATATATATATA [CACACA_site2808],9.79
19,TCTTATTAAAATATTTATATAGGTAATCACAATATT [GTGCAC_negctrl_site568],6.95
